According to the RNAGym collection of RNA variant scans (doi:10.7554/elife.90254):
Read counts are not given, so values of variants with three or more changes are uncertain.

B1: LINE1-mini (parent)
chain: GGCAGAGCUCAACACAGCGUGGCAAAGUGGCUGUGGCUAGACUGCC

Variants of: B1
Test: self-cleavage, relative activity (ratio to wild type); higher = more cleavage; in vitro, sequencing; the parent is a self-cleaving ribozyme

Variant	self-cleavage
C3U G5A G27A G33U	0.13
C3U G19U A26C G35C	0.2
C3U G5C C13A C23A C46U	0.06
C3U C18U G33A	0.06
C3U C31A G36U	0.04
C3U G19A G22A G27U C31A A39U	0.78
C3U C18A G19C G22A	0.33
C3U G17A C18U C37A	0.18
C3U C8U G19U C23U A25C C37U	0.07
C3U G17C A39C	0.06
C3U C10G C45U	0.04
C3U C15A G19U G21A A24U G40A	0.05
C3U C13U U20C U43A	0.03
C3U A14U C15G U20G A25G U32C	0.02
C3U G17A C42U	0.04
C3U C23G A25U G27U C31A U34A A39U	0.1
C3U A25C G35U C37U	0.09
C3U G17U A26G G36U	0.04
C3U C15A G19A A26U U28G U32G G33U	0.05
C3U A26U C46A	0.35
C3U C10U A14G C15G G19U G22U	0.02
C3U A16U G17A U20A A25G G27C A41U C46U	0.07
C3U G19C A24C G36U	0.03
C3U G22A A25G U38G G40C	0.03

Variant	self-cleavage
C3U A24C G29U	0.21
C3U G5U C18U G22U G30C G35U	0.03
C3U A25C C31A	0.23
C3U G7A A12G	0.12
C3U C10G A26C	0.02
C3U C8G C13U C31G	0.02
C3U G21C A24G	0.18
C3U A24G G36U	0.69
C3U G21C G36U A39U C42U	0.03
C3U C15G U38G C46U	0.02
C3U C10A G17C C23A G29U	0.04
C3U G7A G44C	0.28
C3U C37U C45G	0.13
C3U C8A C15A G21C G22A C23A C37U	0.05
C3U G22A G33C C46U	0.06
C3U G17A G27C G36C	0.05
C3U C10A G19A	0.08
C3U G22U A25G G40C U43A	0.05
C3U G7A C13U C15A	0.08
C3U C15G C18G G21A	0.02
C3U G5A C10U G29C	0.06
C3U G22C C42A	0.04
C3U A16G U43C C46A	0.01
C3U C10A G27U	0.04

Variant	self-cleavage
C3U C8G C15U A16C C18G A26U	0.11
C3U G17C C18U C23U U32C G35U	0.07
C3U C8A A24C U32C	0.3
C3U C13U A14U U43A	0.04
C3U A16C A24C	0.03
C3U C31U G33U	0.14
C3U A39C C46G	0.04
C3U G22C G33C	0.01
C3U G22U U28A	0.33
C3U C10U C18A U34C C42U C46A	0.04
C3U A26G A41C U43G	0.05
C3U G19C G33A G40U	0.03
C3U G5U G33U U34A G35C A39C	0.05
C3U C10A G21U G36U	0.05
C3U A24G A39C	0.14
C3U A16C G27A A41U	0.56
C3U G5C A11U A39U G40C	0.11
C3U G5A C13A G17U C45U	0.03
C3U G7A C13A	0.41
C3U C18U G29A A41U	0.35
C3U G5C A24C G27U C31A C45A	0.08
C3U G7U C23U G29U C45U	0.09
C3U G7U C23U	0.06
C3U C37G C42A	0.45

Variant	self-cleavage
C3U G19A G35U U43G	0.85
C3U C13A G30U	0.13
C3U A24G C46G	0.27
C3U C15G A16U C31U	0.08
C3U C10U U43G C45U	0.11
C3U G19A C45U	0.65
C3U G22C A39G	0.07
C3U A16G G40A	0
C3U C8G C13G	0.53
C3U G21U C23U A41C	0.21
C3U C13U U38G	0.01
C3U C23G G27C	0.05
C3U C8A C18G G19C A26G C46U	0.35
C3U G21C G36A U38C	0.07
C3U G7U G19A U20A A41G	0.05
C3U G5U U34G	0.01
C3U C10A C18A A26C	0.01
C3U G7A C23A C37A U43G	0.02
C3U G5A C8U G36U	0.32
C3U A16G G17C G36C G40A	0.01
C3U C8U C15A	0.53
C3U G17A A41U G44C	0.07
C3U G5A U20A G29U C37A	0.01
C3U C15A U20G	0.04

Variant	self-cleavage
C3U C15A U28C C31A U38G G40C C45U	0.04
C3U C23G G27U U28G C46U	0.11
C3U C8G C15A C18U	0.03
C3U C8A A39U C42U	0.03
C3U C8A C13U G40U	0.07
C3U C15A G40A	0.03
C3U G7A A41C C46A	0.06
C3U G7A G29U U32G	0.1
C3U C18U A25G G27C	0.04
C3U G7C U32C	0.27
C3U A16U U38G	0.09
C3U C13A U20G U34A U38G	0.01
C3U G17C U32C U38A	0.15
C3U G7C G30A C31A C37A	0.11
C3U A24G A25U	0.64
C3U C8A C46A	0.41
C3U C15G U20A	0.04
C3U C15A G22U	0.03
C3U C8U U43G	1.11
C3U C23A A24C G27U	0.31
C3U G19U A25U G35U	0.08
C3U G5A G17C G33U C45U	0.05
C3U A16G U28C U34C	0.1
C3U G5C C13A G30C	0.11

Variant	self-cleavage
C3U A16U A41U C42U	0.06
C3U C23U U28G	0.41
C3U C15G G19U C31A A39C	0.03
C3U C23G C31G G40U	0.21
C3U A14U A26U G36U A41G G44C	0.04
C3U C13G A16U G27C U34A	0.08
C3U C8A C31A	0.43
C3U G17A C18G C31G	0.04
C3U G7A C8G C23A G29C G35A	0.11
C3U C8U A12C G35A U43A	0.01
C3U G17U U28C G35C	0.01
C3U C15G G29U	0.03
C3U G22U A24U C37G A41U	0.06
C3U A16C G33U	0.11
C3U G5A C13A A14C U38A G44A	0.14
C3U C10A A24C A26U U34A	0.03
C3U G17U U32A	0.09
C3U G19U A26C G40A	0.08
C3U A16G U32C G35A	0.06
C3U C18G A25C G27U	0.79
C3U A26C A39U	0.34
C3U G22A G27A G35A G40A U43C	0.05
C3U C42A C45A	0.03
C3U G5A C37A	0.12

Variant	self-cleavage
C3U G7U U28G G33C A41U	0.07
C3U C8G G35U	0.15
C3U G17U G19U A25G G36U C37G	0.01
C3U G19A G22U	0.21
C3U G7U A14C G17U U28A G40U C42G	0.05
C3U C8A A11U A12C A14U U34C	0.03
C3U G7A C15A G17A A24U	0.03
C3U C10U G22C G27C	0.04
C3U G19C C23G G35A	0.04
C3U C10A C15U C18U C46A	0.04
C3U C18A U34G	0.02
C3U G19U A26U	0.22
C3U C15U G22U A24U	1.32
C3U G22U C23G A26C	0.73
C3U G27A G33U	0.09
C3U A14U A24G	0.07
C3U G7C C8A A16G	0.06
C3U C10G U43G	0.06
C3U C15U A16U G30A U43G	0
C3U C31U C46G	0.03
C3U C10A C37A	0.01
C3U A16U C23A C37A C45G	0.21
C3U G7C C10U	0.11
